{
  "source": "PubChem BioAssay AID588453",
  "about": "(National Center for Advancing Translational Sciences (NCATS), 2011)",
  "note": "Among all 390,000 compounds or so, about 4,000 (1%) were called active. This list was built around the results that the source calls inconclusive (neither active nor inactive); the mix of calls is not that of the screen. Calls follow the shape of the dose curve; as a rule, active = well fitted inhibition curve with a large enough effect; inconclusive = small, poorly fitted or top-dose-only effect; inactive = no such curve, though single readings can be large or run the other way. Where the call is inconclusive, the potency comes from a doubtful curve fit. % is scaled to controls: 0 for no effect and ±100 for the full control effect; potency is read from the fitted curve at half-maximal effect; tags tell the direction and shape of the fitted curve.",
  "data": [
    {"target": "Thioredoxin reductase 1, cytoplasmic (Rattus norvegicus) (UniProt O89049)", "sequence (O89049 whole entry, looked up)": "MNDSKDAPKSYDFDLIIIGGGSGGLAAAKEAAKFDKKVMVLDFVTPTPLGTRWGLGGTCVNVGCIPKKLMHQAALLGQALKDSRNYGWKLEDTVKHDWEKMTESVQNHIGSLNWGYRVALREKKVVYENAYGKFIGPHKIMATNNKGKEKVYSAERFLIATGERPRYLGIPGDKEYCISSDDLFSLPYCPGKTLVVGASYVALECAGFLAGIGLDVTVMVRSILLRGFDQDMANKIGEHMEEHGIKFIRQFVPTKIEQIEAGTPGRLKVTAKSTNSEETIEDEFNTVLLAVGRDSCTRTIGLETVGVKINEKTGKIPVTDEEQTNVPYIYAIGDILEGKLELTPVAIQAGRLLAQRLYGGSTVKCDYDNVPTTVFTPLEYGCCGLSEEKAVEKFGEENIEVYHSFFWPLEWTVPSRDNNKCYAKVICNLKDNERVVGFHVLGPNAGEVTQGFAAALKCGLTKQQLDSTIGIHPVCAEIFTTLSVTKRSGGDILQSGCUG", "experiment": "qHTS Assay for Inhibitors of Mammalian Selenoprotein Thioredoxin Reductase 1 (TrxR1): qHTS; also: nearly all actives have a fitted effect of over 65% in size", "details": "recombinant rTrxR1, NADPH fluorescence consumption, selenite substrate; series mostly up to 114 µM; activity change, negative = inhibition: at the top concentration", "how_it_was_run": "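Rat TrxR1 (90 nM in the dispensed reagent) was pre-reduced with 400 uM NADPH for 5 min at room temperature, then incubated with compound for 15 min. After 400 uM selenite was added, NADPH fluorescence (Ex 340/Em 450 nm) was followed for 8 min.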", "values": [
      {"smiles": "COc1ccc(CNC(=O)CCS(=O)(=O)c2cccc3nonc23)cc1", "Potency": "active: 11.2 µM"},
      {"smiles": "CCOC(=O)c1cc2ccc(OC)cc2oc1=O", "Potency": "inconclusive: 70.8 µM [inhibitor, single point]"},
      {"smiles": "CCCCSc1nnc2c(n1)OC(c1ccc(Br)s1)Nc1ccccc1-2", "note": "(configuration not stated)", "Potency": "inconclusive: 70.8 µM [inhibitor, partial curve, poor fit]"},
      {"smiles": "O=C(O)CSc1nnc(-c2ccccc2)c(-c2ccccc2)n1", "Potency": "inconclusive: 79.4 µM [inhibitor, single point]"},
      {"smiles": "S=C(Nc1ccc2nsnc2c1)NC1CCCCC1", "Potency": "inconclusive: 39.8 µM [inhibitor, partial curve]"},
      {"smiles": "CC(C)C(Cl)=NOC(=O)Nc1ccc(F)cc1", "Potency": "inconclusive: 2.24 µM [inhibitor, partial curve, poor fit]"},
      {"smiles": "Cc1ccc(CNC(=O)Cn2ccc3cc(S(=O)(=O)N4CCCC4)ccc32)o1", "Potency": "inconclusive: 28.2 µM [inhibitor, single point]"},
      {"smiles": "CCOC(=O)C1=C(C)NC(C)=C(C(=O)OCC)C1c1c(F)c(F)c(F)c(F)c1F", "Potency": "inconclusive: 17.8 µM [inhibitor, single point]"},
      {"smiles": "CCc1ccc(Oc2nc([N+](=O)[O-])nn2C)cc1", "Potency": "inconclusive: 17.8 µM [inhibitor, partial curve]"},
      {"smiles": "CC[C@@H]1CC=C[C@H]2[C@H]1C(=O)N(Cc1ccccc1)[C@H]2c1ccoc1", "Potency": "inconclusive: 20 µM [inhibitor, partial curve, poor fit]"},
      {"smiles": "Cc1ccc(/C=C/C(=O)NCCc2cccc(Cl)c2)o1", "Potency": "inconclusive: 1 µM [inhibitor, single point]"},
      {"smiles": "CC(C)Oc1ccc(CNC(=O)C2=Cc3ccccc3OC2)cc1", "activity change, negative = inhibition": "inactive: 17.4% [at 57.1 µM]"},
      {"smiles": "CC(C)(C)OC(=O)NCC12C=CC(O1)C1C(=O)N(Cc3ccccc3)C(=O)C12", "note": "(configuration not stated)", "Potency": "inconclusive: 28.2 µM [inhibitor, single point]"},
      {"smiles": "CCOc1ccccc1N1CSC2=C(C#N)C(c3c(OC)ccc4ccccc34)CC(=O)N2C1", "note": "(configuration not stated)", "Potency": "inconclusive: 14.1 µM [inhibitor, partial curve]"},
      {"smiles": "O=C(CCCN1C(=O)/C(=C/c2ccco2)SC1=S)Nc1ccccc1C(=O)O", "Potency": "inconclusive: 25.1 µM [inhibitor, single point]"},
      {"smiles": "CCCCCCCCCCCCOC(=O)N1CCN(/[N+]([O-])=N/Oc2ccc([N+](=O)[O-])cc2[N+](C)=O)CC1", "Potency": "active: 50.1 µM"},
      {"smiles": "Cc1oc(-c2ccc(Cl)cc2)nc1CS(=O)CC(=O)NC1CCCCCC1", "note": "(configuration not stated)", "Potency": "inconclusive: 56.2 µM [inhibitor, partial curve, poor fit]"},
      {"smiles": "CC(C)CN1CCC(=O)N(C(CSc2ccc(Br)cc2)Cc2ccccc2)CC1", "note": "(configuration not stated)", "Potency": "inconclusive: 25.1 µM [inhibitor, single point]"},
      {"smiles": "Cc1ccc(S(=O)(=O)CCC(=O)N(CCN2CCOCC2)c2nc3ccccc3s2)cc1", "Potency": "inconclusive: 20 µM [inhibitor, single point]"},
      {"smiles": "Cn1c(N)c(C#N)c2c(c1=S)CSC(C)(C)C2", "Potency": "inconclusive: 50.1 µM [inhibitor, partial curve]"},
      {"smiles": "C=CCSC1=C(C#N)C(c2cc(Br)c(O)c(OC)c2)CC(=O)N1", "note": "(configuration not stated)", "Potency": "inconclusive: 70.8 µM [inhibitor, single point]"},
      {"smiles": "CCCCNc1ccccc1C(=O)OCC(=O)Nc1ccc(S(N)(=O)=O)cc1", "activity change, negative = inhibition": "inactive: 21.6%"},
      {"smiles": "Oc1ccc(Br)cc1C=Nc1cccn2cc(-c3ccccc3)nc12", "activity change, negative = inhibition": "inactive: 26.1%"},
      {"smiles": "CCN(c1ccc(OC)cc1)S(=O)(=O)c1ccc2[nH]c3c(c2c1)CCCCC3", "activity change, negative = inhibition": "inactive: 16.4%"},
      {"smiles": "CC(=O)c1ccc(NC(=O)CCc2nnc3ccc(NCc4ccco4)nn23)cc1", "Potency": "inconclusive: 39.8 µM [inhibitor, partial curve, poor fit]"},
      {"smiles": "O=C(O)CC1C(=O)NCCN1CCCc1ccccc1", "note": "(configuration not stated)", "Potency": "inconclusive: 39.8 µM [inhibitor, partial curve]"},
      {"smiles": "COc1ccc(C(=O)COC(=O)Cn2nnc3ccccc32)cc1Br", "activity change, negative = inhibition": "inactive: 15.5%"},
      {"smiles": "CCS(=O)(=O)c1cc([N+](=O)[O-])c(Sc2ccccc2N)s1", "Potency": "inconclusive: 25.1 µM [inhibitor, single point]"},
      {"smiles": "Cc1ccc(S(=O)(=O)ON2C(=O)c3ccccc3C2=O)c(C)c1", "Potency": "active: 3.55 µM"},
      {"smiles": "O=c1cc(CN2CCCc3ccccc32)nc2sccn12", "Potency": "inconclusive: 50.1 µM [inhibitor, partial curve]"},
      {"smiles": "CC(C)(C)c1ccc(CN2N=Nc3ccccc3S2(=O)=O)cc1", "Potency": "inconclusive: 39.8 µM [inhibitor, partial curve, poor fit]"},
      {"smiles": "O=C(COC(=O)c1cc(-c2ccco2)nc2ccccc12)NCc1ccccc1", "Potency": "active: 44.7 µM"},
      {"smiles": "Cc1cc(C(=O)CN2C(=O)NC3(CCCCCC3)C2=O)c(C)n1C", "Potency": "inconclusive: 79.4 µM [inhibitor, single point]"},
      {"smiles": "CN1CCN(S(=O)(=O)c2cccc(C(=O)Oc3cccc(Br)c3)c2)CC1", "Potency": "inconclusive: 89.1 µM [inhibitor, single point]"},
      {"smiles": "Cc1cc(C(C)(C)C)oc1C(=O)O", "activity change, negative = inhibition": "inactive: 18.9%"},
      {"smiles": "COC(=O)C1=C(C)N(CC2CCCO2)C(=O)C1", "note": "(configuration not stated)", "Potency": "inconclusive: 39.8 µM [inhibitor, partial curve, poor fit]"},
      {"smiles": "Cc1ccc(C)n1-c1ccc(C(=O)N2CCOCC2)cc1", "Potency": "inconclusive: 10 µM [inhibitor, partial curve, poor fit]"},
      {"smiles": "CC1(C)Oc2ccc3ccc(=O)oc3c2/C(=C/NNC(N)=S)C1=O", "Potency": "inconclusive: 63.1 µM [inhibitor, partial curve, poor fit]"},
      {"smiles": "O=C(NC1CC1)c1ccc2nc(-c3ccco3)c(-c3ccco3)nc2c1", "Potency": "active: 2.51 µM"},
      {"smiles": "COc1cc2cc(CCCOC(=O)c3ccc(Br)cc3)oc(=O)c2cc1OC", "Potency": "inconclusive: 28.2 µM [inhibitor, partial curve]"},
      {"smiles": "C#CCOCCOCCOCCNc1nc(N2CCN(C(=O)[C@H](CCCCN)n3cc(CCCC)nn3)CC2)nc(N2CCN(C(=O)[C@H](Cc3ccc(O)cc3)n3cc(CCO)nn3)CC2)n1", "Potency": "active: 14.1 µM"},
      {"smiles": "Cc1ccc(-c2csc(-c3nc(-c4ccc(Br)s4)cs3)n2)cc1", "activity change, negative = inhibition": "inactive: 14.7%"}
    ]}
  ]
}
